# From the supplement of paper PMC8728848
# The other results are listed elsewhere or left out.
# B1: F17bG (Escherichia coli), Q47200 (protein)
# chain: MTNFYKVFLAVFILVCCNISHAVVSFIGSTENDVGPSQGSYSSTHAMDNLPFVYNTGYNIGYQNANVWRIGGGFCVGLDGKVDLPVVGSLDGQSIYGLTEEVGLLIWMGDTNYSRGTAMSGNSWENVFSGWCVGNYLSTQGLSVHVRPVILKRNSSAQYSVQKTSIGSIRMRPYNGSSAGSVQTTVNFSLNPFTLNDTVTSCRLLTPSAVNVSLAAISAGQLPSSGDEVVAGTTSLKLQCDAGVTVWATLTDATTPSNRSDILTLTGASTATGVGLRIYKNTDSTPLKFGPDSPVKGNENQWQLSTGTETSPSVRLYVKYVNTGEGINPGTVNGISTFTFSYQ
# Assays:
# Assay in all cases: glycan array binding signal (z-score within array); higher = stronger binding
# Settings in all cases: glycan notation: IUPAC condensed, linker removed
# [1] = target: GlcNAc(a1-3)Gal(b1-4)GlcNAc
# Procedure, shortened: (§1)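 The binding signal is a Z-score computed within each array. Data were drawn from 3228 arrays in the Consortium for Functional Glycomics database, restricted to those with a known protein sequence. Scores were averaged over arrays of the same protein sequence at different concentrations or buffers, and over linkers, and negative values can be taken as non-binding.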
# [2] = target: GlcNAc(a1-6)Gal(b1-4)GlcNAc
# Procedure, shortened: as §1
# [3] = target: GlcNAc(b1-2)Gal(b1-3)GalNAc
# Procedure, shortened: as §1
# [4] = target: GlcNAc(b1-2)Man(a1-3)[GlcNAc(b1-2)Man(a1-6)]Man(b1-4)GlcNAc(b1-4)GlcNAc
# Procedure, shortened: as §1
# GlcNAc(b1-3)Gal = target: GlcNAc(b1-3)Gal
# Procedure, shortened: as §1
# [5] = target: GlcNAc(b1-3)Gal(b1-3)GalNAc
# Procedure, shortened: as §1
# GlcNAc(b1-3)Gal(b1-4)Glc = target: GlcNAc(b1-3)Gal(b1-4)Glc
# Procedure, shortened: as §1
# [6] = target: GlcNAc(b1-3)Gal(b1-4)GlcNAc
# Procedure, shortened: as §1
# [7] = target: GlcNAc(b1-3)Gal(b1-4)GlcNAc(b1-3)Gal(b1-4)GlcNAc
# Procedure, shortened: as §1
# GlcNAc(b1-3)GalNAc = target: GlcNAc(b1-3)GalNAc
# Procedure, shortened: as §1
# [8] = target: GlcNAc(b1-3)[GlcNAc(b1-6)]Gal(b1-4)GlcNAc
# Procedure, shortened: as §1
# [9] = target: GlcNAc(b1-3)[GlcNAc(b1-6)]GalNAc
# Procedure, shortened: as §1
# [10] = target: GlcNAc(b1-3)[GlcNAc(b1-6)]GlcNAc(b1-4)GlcNAc
# Procedure, shortened: as §1
# [11] = target: GlcNAc(b1-4)Gal(b1-4)GlcNAc
# Procedure, shortened: as §1
# [12] = target: GlcNAc(b1-4)GlcNAc(b1-4)GlcNAc
# Procedure, shortened: as §1
# [13] = target: GlcNAc(b1-4)GlcNAc(b1-4)GlcNAc(b1-4)GlcNAc(b1-4)GlcNAc
# Procedure, shortened: as §1
# [14] = target: GlcNAc(b1-4)GlcNAc(b1-4)GlcNAc(b1-4)GlcNAc(b1-4)GlcNAc(b1-4)GlcNAc
# Procedure, shortened: as §1
# [15] = target: GlcNAc(b1-4)[GlcNAc(b1-6)]GalNAc
# Procedure, shortened: as §1
# [16] = target: GlcNAc(b1-6)Gal(b1-4)GlcNAc
# Procedure, shortened: as §1
# GlcNAc(b1-6)GalNAc = target: GlcNAc(b1-6)GalNAc
# Procedure, shortened: as §1
# Kdn(a2-3)Gal(b1-3)GlcNAc = target: Kdn(a2-3)Gal(b1-3)GlcNAc
# Procedure, shortened: as §1
# Kdn(a2-3)Gal(b1-4)GlcNAc = target: Kdn(a2-3)Gal(b1-4)GlcNAc
# Procedure, shortened: as §1
# [17] = target: Man(a1-2)Man(a1-2)Man(a1-3)Man
# Procedure, shortened: as §1
# [18] = target: Man(a1-2)Man(a1-2)Man(a1-6)[Man(a1-3)]Man
# Procedure, shortened: as §1
# Man(a1-2)Man(a1-3)Man = target: Man(a1-2)Man(a1-3)Man
# Procedure, shortened: as §1
# [19] = target: Man(a1-2)Man(a1-3)[Man(a1-2)Man(a1-6)]Man
# Procedure, shortened: as §1
# [20] = target: Man(a1-2)Man(a1-3)[Man(a1-2)Man(a1-6)]Man(a1-6)[Man(a1-2)Man(a1-2)Man(a1-3)]Man(b1-4)GlcNAc(b1-4)GlcNAc
# Procedure, shortened: as §1
# [21] = target: Man(a1-2)Man(a1-3)[Man(a1-6)]Man(a1-6)[Man(a1-2)Man(a1-3)]Man(b1-4)GlcNAc(b1-4)GlcNAc
# Procedure, shortened: as §1
# [22] = target: Man(a1-2)Man(a1-6)[Man(a1-3)]Man(a1-6)[Man(a1-2)Man(a1-2)Man(a1-3)]Man(b1-4)GlcNAc(b1-4)GlcNAc
# Procedure, shortened: as §1
# Man(a1-3)[Man(a1-6)]Man = target: Man(a1-3)[Man(a1-6)]Man
# Procedure, shortened: as §1
# [23] = target: Man(a1-3)[Man(a1-6)]Man(a1-6)[Man(a1-2)Man(a1-3)]Man(b1-4)GlcNAc(b1-4)GlcNAc
# Procedure, shortened: as §1
# [24] = target: Man(a1-3)[Man(a1-6)]Man(a1-6)[Man(a1-3)]Man(b1-4)GlcNAc(b1-4)GlcNAc
# Procedure, shortened: as §1
# [25] = target: Man(a1-3)[Man(a1-6)]Man(b1-4)GlcNAc(b1-4)GlcNAc
# Procedure, shortened: as §1
# Man(b1-4)GlcNAc = target: Man(b1-4)GlcNAc
# Procedure, shortened: as §1
# Neu5Ac(a2-3)Gal = target: Neu5Ac(a2-3)Gal
# Procedure, shortened: as §1
# [26] = target: Neu5Ac(a2-3)Gal(b1-3)GalNAc
# Procedure, shortened: as §1
# [27] = target: Neu5Ac(a2-3)Gal(b1-3)GalNAc(b1-3)Gal(a1-4)Gal(b1-4)Glc
# Procedure, shortened: as §1
binder,measurement,setting,value
B1,glycan array binding signal (z-score),[1],-0.642
same,glycan array binding signal (z-score),[2],-0.605
same,glycan array binding signal (z-score),[3],-0.48
same,glycan array binding signal (z-score),[4],0.335
same,glycan array binding signal (z-score),GlcNAc(b1-3)Gal,4.21
same,glycan array binding signal (z-score),[5],2.47
same,glycan array binding signal (z-score),GlcNAc(b1-3)Gal(b1-4)Glc,3.24
same,glycan array binding signal (z-score),[6],1.95
same,glycan array binding signal (z-score),[7],1.52
same,glycan array binding signal (z-score),GlcNAc(b1-3)GalNAc,3.86
same,glycan array binding signal (z-score),[8],5.83
same,glycan array binding signal (z-score),[9],2.94
same,glycan array binding signal (z-score),[10],1.09
same,glycan array binding signal (z-score),[11],3.19
same,glycan array binding signal (z-score),[12],0.085
same,glycan array binding signal (z-score),[13],-0.372
same,glycan array binding signal (z-score),[14],-0.447
same,glycan array binding signal (z-score),[15],3.18
same,glycan array binding signal (z-score),[16],0.854
same,glycan array binding signal (z-score),GlcNAc(b1-6)GalNAc,1.26
same,glycan array binding signal (z-score),Kdn(a2-3)Gal(b1-3)GlcNAc,-0.237
same,glycan array binding signal (z-score),Kdn(a2-3)Gal(b1-4)GlcNAc,-0.374
same,glycan array binding signal (z-score),[17],-0.414
same,glycan array binding signal (z-score),[18],-0.659
same,glycan array binding signal (z-score),Man(a1-2)Man(a1-3)Man,-0.573
same,glycan array binding signal (z-score),[19],-0.54
same,glycan array binding signal (z-score),[20],-0.585
same,glycan array binding signal (z-score),[21],-0.383
same,glycan array binding signal (z-score),[22],-0.296
same,glycan array binding signal (z-score),Man(a1-3)[Man(a1-6)]Man,0.592
same,glycan array binding signal (z-score),[23],-0.327
same,glycan array binding signal (z-score),[24],-0.326
same,glycan array binding signal (z-score),[25],-0.408
same,glycan array binding signal (z-score),Man(b1-4)GlcNAc,-0.566
same,glycan array binding signal (z-score),Neu5Ac(a2-3)Gal,0.212
same,glycan array binding signal (z-score),[26],-0.276
same,glycan array binding signal (z-score),[27],-0.335
